Data: PubChem BioAssay AID493208 (National Center for Advancing Translational Sciences (NCATS), 2011)
About 340 (0.77%) of roughly 44,000 compounds were called active. Another 5% or so got no clear call; they are omitted. Calls follow the shape of the dose curve; as a rule, active = well fitted inhibition curve with a large enough effect; inconclusive = small, poorly fitted or top-dose-only effect; inactive = flat fitted curve, though single readings scatter. This is one part of the list.

experiment: Acumen qHTS Assay for Inhibitors of the mTORC1 Signaling Pathway in MEF (Tsc2-/-, p53-/-) Cells: Sytravon; conditions: phospho-rpS6 immunofluorescence/PI, 24 h; series mostly up to 38.3 µM; activity change, negative = inhibition: at the top concentration;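 also: plate controls were DMSO for no effect and rapamycin for full effect; nearly all actives have a fitted effect of over 50% in size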
In short: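 Readout is phospho-S6 Alexa 488 signal normalized to PI per well, reported as % active cells with thresholds set from rapamycin (7.5 nM) and DMSO controls. Cells: Tsc2-/-, p53-/- MEFs, 24 hrs compound at 37 C; PI cell number serves as viability.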

Activity change, negative = inhibition, inactive:
O=S(=O)(c1ccc2ccccc2c1)n1nc(-c2ccco2)nc1NCc1cccc(Cl)c1 1.94%, Cc1ccc(CNC(=O)c2ccc3c(c2)N(Cc2ccccc2F)C(=O)c2ccccc2S3(=O)=O)cc1 -1.6%, COc1cccc(CNC(=O)c2cnc(N3CCCC3)nc2C)c1 4.43%, COc1ccc(S(=O)(=O)c2cn(C)c3cc(N4CCCC4)c(F)cc3c2=O)cc1 -3.05%, CCOc1ccc(CCNC(=O)Cn2nnc(-c3ccc(OC)c(OC)c3)n2)cc1OCC -6.57%, CN1CCN(C(CNC(=O)C(=O)Nc2ccc(F)cc2F)c2ccc3c(c2)OCO3)CC1 (centres undefined) -1.11%, CC(C)Oc1ccc(CNS(=O)(=O)c2cnc(N)nc2)cc1 -0.15%, CCOc1cc(CNCCSc2nnnn2-c2ccccc2)cc(Cl)c1OC -8.25%, COc1cc(NC(=O)c2nnn(CC(=O)Nc3ccccc3)c2N)cc(OC)c1 -7.97%, Cc1ccc2nc(-c3ccc(NC(=O)COc4c(C)ccc(C)c4C)cc3)sc2c1 1.62%, O=C(NC1CCCCC1)c1ccc2c(c1)N(Cc1ccccc1)C(=O)c1ccccc1S2 6.35%, CSc1nc(-c2ccc(F)cc2)nc2c1Cc1c(CO)cnc(C)c1O2 -4.38%, CCCc1nn2c(=O)cc(COC(=O)c3ccc(NC(=O)C(C)Oc4ccccc4)cc3)nc2s1 (centres undefined) 6.74%, CCCCNc1nc(Oc2ccc(=O)n(C)n2)nc(N(C)C)n1 -6.05%, COc1ccc(C(=O)c2cn(Cc3ccc(C)cc3)c3cc4c(cc3c2=O)OCO4)cc1 -0.575%, COc1ccccc1-c1noc(CSc2nc3ccc(C)cc3[nH]2)n1 -6.43%, O=C(CSc1cn(CC(=O)N2CCCCC2)c2ccccc12)Nc1ccccc1F -13.7%, Cc1c(Cl)cccc1NC(=O)CCn1c(=O)c2cccn2c2ccccc21 -14.6%, Cc1ccc2c(CC(=O)Nc3ccccc3C(F)(F)F)coc2c1C 5.1%, CC(CNC(=O)C1CCN(Cc2cc3ccccc3n2Cc2ccccc2)CC1)c1ccccc1 (centres undefined) -15%, CCOc1ccccc1NC(=O)CSc1nccn1-c1ccc(Cl)cc1 -1.07%, CSc1ccc(CCNC(=O)C2CCN(c3nc4ccccc4nc3C(F)(F)F)CC2)cc1 0.724%, O=C(Cn1c(=O)n(Cc2ccc3c(c2)OCO3)c(=O)c2oc3ccccc3c21)Nc1ccccc1 0.649%, Cc1ccccc1CNC(=O)C1CCN(c2nnc(C)c3c(C)n(-c4ccccc4)nc23)CC1 -1.07%, CCc1ccc(-c2nc3ccc(Br)cc3c(C(=O)O)c2C)s1 0.15%, CCn1c(C(=O)NCc2cccc(Br)c2)cc2oc3ccccc3c21 -8.15%, COC(=O)c1ccc(NC(=O)c2c(NCc3ccc(C)o3)sc3c2CCCC3)cc1 0.808%, CCc1nnc(NC(=O)c2cc(=O)c3cc(C)c(C)cc3o2)s1 0.927%, COc1cc(-c2noc(-c3cc4cc(F)ccc4oc3=O)n2)cc(OC)c1OC -3.66%, CN1C(=O)C2(c3ccccc31)N(c1ccccc1)C(=O)CS2(=O)=O (centres undefined) -21.7%, Cc1cc(C)c2oc(C(=O)Nc3sc4c(c3C(=O)NCc3ccco3)CCC4)cc(=O)c2c1 -5.23%, Cc1ccc(NC(=O)/C=C/c2ccccc2)c(Br)c1 17.8%, COc1ccc(-c2nc3scc(CCNS(=O)(=O)c4c(C)noc4C)n3n2)cc1 -1.36%, CN1CCN(C(=O)C(=O)Nc2c3c(nn2-c2ccc(F)cc2)CSC3)CC1 -0.505%, Cc1ccc(C)c(CN2C(=O)c3ccccc3S(=O)(=O)c3ccc(C(=O)Nc4ccccc4C(F)(F)F)cc32)c1 1.4%, COc1ccc(N2CCN(C(=O)Cn3cnc4nc5c(cc4c3=O)CCCC5)CC2)cc1 13.3%, CCOC(=O)c1cccc(NC(=O)c2cc(CN3CCCC3)on2)c1 4.59%, COc1ccc(/C=C\c2onc(C)c2S(=O)(=O)N2CCC(C(=O)Nc3ccccc3OC)CC2)cc1 0.808%, CCS(=O)(=O)N1N=C(c2ccc(C)cc2)CC1c1cc2ccc(OC)cc2nc1Cl (centres undefined) -15.6%, COc1ccccc1OC(C)C(=O)NCC1(N2CCOCC2)CCCCC1 (centres undefined) -7.11%, Cc1ccc(Cn2cccc2C2=NC(C)(C)CO2)cc1 -16.1%, CC1CCN(S(=O)(=O)c2ccc3c(c2)N(CC(=O)NC(C)C)C(=O)CS3)CC1 3.72%, CCc1nn(CCCC(=O)NCc2ccccc2Br)c(=O)c2cc3occc3n12 -3.84%, CCCCOc1ccc(-c2nonc2NC(=O)c2ccco2)cc1 0.176%, COc1ccc(NC(=O)CCNS(=O)(=O)c2cccc3nonc23)cc1 -28.5%, CCCC(=O)N1c2ncnn2C2(CCCCC2)[C@@H]2CCCC[C@@H]21 -0.899%, Cc1ccc(CCNC(=O)CN(c2ccc(C)cc2)S(=O)(=O)c2c(C)noc2C)cc1 0.546%, Cc1c(Cl)ccc2sc(N3CCN(C(=O)c4ccco4)CC3)nc12 -3.79%, COc1ccccc1CNc1ccc(-c2nc(C(C)C)no2)cc1[N+](=O)[O-] -0.79%
